{"source": "the supplement of paper PMC9446081", "note": "Out of some 39,000 compounds screened, about 220 (0.56%) showed activity. The list shows a part of the results.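 Also: static incubation at 37 °C against the wild-type strain, values averaged over two biological replicates.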", "data": [{"system": "Escherichia coli K-12 BW25113", "assay": "relative growth (OD600 normalised to plate interquartile mean) (fraction); higher = less growth inhibition, active = 0.2 or less", "details": "50 µM; LB; incubation time: overnight (16-24 h)", "values": [{"compound": "O=C1O[C@@H](c2ccccc2)[C@@H](c2ccccc2)N2[C@@H](c3ccc(O)cc3)[C@]3(C(=O)Nc4ccccc43)[C@@H](C(=O)N3CCCCCCC3)[C@H]12", "relative growth": "inactive: 1.01"}, {"compound": "C[C@H](CO)N1C[C@H](C)[C@H](CN(C)S(=O)(=O)c2ccc(F)cc2)OCCCC[C@H](C)Oc2ccc(NS(=O)(=O)c3cn(C)cn3)cc2C1=O", "relative growth": "inactive: 1.01"}, {"compound": "C[C@H]1CN(C(=O)CSc2nnc3c4ccccc4n(Cc4cccc(Cl)c4)c3n2)CCN1C(=O)c1ccccc1F", "relative growth": "inactive: 1.03"}, {"compound": "Cc1noc(C)c1NC(=O)Nc1ccc2c(c1)C(=O)N([C@@H](C)CO)C[C@@H](C)[C@@H](CN(C)C(=O)Nc1ccc(C(F)(F)F)cc1)O2", "relative growth": "inactive: 0.937"}, {"compound": "C[C@@H]1CN([C@@H](C)CO)C(=O)c2cc(NC(=O)Nc3cccc4ccccc34)ccc2O[C@@H](C)CCCCO[C@@H]1CN(C)C(=O)Nc1ccccc1", "relative growth": "inactive: 1.01"}, {"compound": "COCC(=O)N1CC[C@]2(CC1)CN([C@H](CO)c1c2c2ccc(cc2n1C)OC)C(=O)Nc1ccccc1F", "relative growth": "inactive: 0.947"}, {"compound": "C[C@H]1CN([C@@H](C)CO)C(=O)c2cc(NC(=O)Cn3cnnn3)ccc2O[C@H]1CN(C)C(=O)Nc1ccc(F)cc1", "relative growth": "inactive: 0.975"}, {"compound": "Cc1nc(CCO)cs1", "relative growth": "inactive: 1.02"}, {"compound": "C[C@@H]1CN([C@H](C)CO)C(=O)c2cc(NS(=O)(=O)c3cn(C)cn3)ccc2O[C@@H](C)CCCCO[C@H]1CN(C)C(=O)Nc1ccc(C(F)(F)F)cc1", "relative growth": "inactive: 0.951"}, {"compound": "CCc1cnc2c(c1OC)c(=O)[nH]c(=O)n2C", "relative growth": "inactive: 0.975"}, {"compound": "CN1CCC[C@H]1CO", "relative growth": "inactive: 0.919"}, {"compound": "C[C@@H]1CCCCO[C@@H](CN(C)S(=O)(=O)c2cccs2)[C@@H](C)CN([C@@H](C)CO)C(=O)c2cc(NC(=O)C3CCCCC3)ccc2O1", "relative growth": "inactive: 1.01"}, {"compound": "CC(C)(C)[S@](=O)N1Cc2cc(C(=O)N[C@H]3CCN(Cc4ccccc4)C3)nc(-c3cccc(-c4ccncc4)c3)c2[C@@H]1CCO", "relative growth": "inactive: 1.02"}, {"compound": "Cc1ccc(NC2C(=O)NC(=O)N2N)cc1", "note": "(stereo not drawn)", "relative growth": "inactive: 0.942"}, {"compound": "Cc1cc(C(=O)Nc2ccc(S(=O)(=O)O)c3cc(S(=O)(=O)O)cc(S(=O)(=O)O)c23)ccc1NC(=O)c1cccc(NC(=O)Nc2cccc(C(=O)Nc3cc(C(=O)Nc4ccc(S(=O)(=O)O)c5cc(S(=O)(=O)O)cc(S(=O)(=O)O)c45)ccc3C)c2)c1", "relative growth": "inactive: 1.01"}, {"compound": "C[C@@H]1CN([C@@H](C)CO)C(=O)c2cccc(NC(=O)c3ccncc3)c2O[C@H]1CN(C)Cc1ccncc1", "relative growth": "inactive: 0.984"}, {"compound": "COc1ccc(S(=O)(=O)N[C@H]2CC[C@@H](CC(=O)N3CCC(Cc4ccccc4)CC3)O[C@@H]2CO)cc1", "relative growth": "inactive: 1.03"}, {"compound": "COCC#Cc1ccc2c(c1)O[C@@H](CN(C)S(=O)(=O)c1ccc(F)cc1)[C@H](C)CN([C@@H](C)CO)S2(=O)=O", "relative growth": "inactive: 1.02"}, {"compound": "CC(C)Cc1ccc(C(C)C(=O)O)cc1", "note": "(stereo not drawn)", "relative growth": "inactive: 1.07"}, {"compound": "CCSC(=O)NC1CCCCC1", "relative growth": "inactive: 0.967"}, {"compound": "Cc1ccc(S(=O)(=O)Nc2ccc3c(c2)C(=O)N([C@H](C)CO)C[C@H](C)[C@H](CN(C)Cc2ccc4c(c2)OCO4)OCCCC[C@H](C)O3)cc1", "relative growth": "inactive: 1.01"}, {"compound": "CC(C)NC(=O)Nc1ccc2c(c1)C(=O)N([C@H](C)CO)C[C@H](C)[C@@H](CN(C)Cc1ccc(C(F)(F)F)cc1)OCCCC[C@@H](C)O2", "relative growth": "inactive: 1.03"}, {"compound": "CC(C)NC(=O)N(C)C[C@@H]1Oc2c(NS(=O)(=O)c3cn(C)cn3)cccc2C(=O)N([C@@H](C)CO)C[C@@H]1C", "relative growth": "inactive: 0.986"}, {"compound": "C[C@@H]1CN([C@H](C)CO)C(=O)Cc2cc(NC(=O)CCN3CCOCC3)ccc2O[C@H]1CN(C)C(=O)Nc1ccc2c(c1)OCO2", "relative growth": "inactive: 1"}, {"compound": "C[C@@H]1CN([C@@H](C)CO)C(=O)c2cccc(NC(=O)CCCCCC(=O)Nc3ccccc3N)c2O[C@H]1CN(C)C(=O)Nc1ccc(F)cc1", "relative growth": "inactive: 1.01"}, {"compound": "COCC#Cc1ccc([C@@H]2[C@H](CO)N3C(=O)CN(C(=O)c4cccnc4)C[C@@H]23)cc1", "relative growth": "inactive: 1.03"}, {"compound": "C[C@@H]1CN([C@H](C)CO)C(=O)c2cc(NC(=O)Nc3ccc(C(F)(F)F)cc3)ccc2O[C@@H](C)CCCCO[C@H]1CN(C)Cc1ccc2c(c1)OCO2", "relative growth": "inactive: 0.924"}, {"compound": "C[C@@H]1CCCCO[C@@H](CN(C)C(=O)CCC(F)(F)F)[C@@H](C)CN([C@H](C)CO)C(=O)c2cc(NC(=O)Nc3ccc(F)cc3)ccc2O1", "relative growth": "inactive: 0.982"}, {"compound": "C[C@@H]1CN([C@H](C)CO)C(=O)CCCn2cc(nn2)CO[C@H]1CN(C)Cc1ccc2c(c1)OCCN2C", "relative growth": "inactive: 1"}, {"compound": "COc1cc(F)c(F)c(Nc2ccc(I)cc2F)c1NS(=O)(=O)C1(C[C@H](O)CO)CC1", "relative growth": "inactive: 1.03"}, {"compound": "COc1cc(OC)c(S(=O)(=O)N(C)Cc2ccccc2)cc1S(=O)(=O)N(C)Cc1ccccc1", "relative growth": "inactive: 1.03"}, {"compound": "COc1cccc(S(=O)(=O)N(C)C[C@@H]2OCc3cn(nn3)CCCC(=O)N([C@H](C)CO)C[C@H]2C)c1", "relative growth": "inactive: 0.963"}, {"compound": "CC1(C)SC2C(NC(=O)C(C(=O)[O-])c3ccsc3)C(=O)N2C1C(=O)[O-].[Na+].[Na+]", "note": "(stereo not drawn)", "relative growth": "inactive: 1.15"}, {"compound": "CN(C)CCCNC(=O)C[C@H]1CC[C@H]2[C@H](COc3ccc(NC(=O)c4ccccc4F)cc3C(=O)N2C)O1", "relative growth": "inactive: 1.01"}, {"compound": "COc1ccc([Si](C)(C)[C@@H]2[C@@H](CCO)O[C@]3(C(=O)N(Cc4ccc(N5CCCCC5=O)cc4)c4ccccc43)[C@H]2C)cc1", "relative growth": "inactive: 1"}, {"compound": "C[C@@H]1CN([C@@H](C)CO)C(=O)c2cccc(NC(=O)C3CCCCC3)c2O[C@H]1CN(C)Cc1ccc(C(F)(F)F)cc1", "relative growth": "inactive: 0.946"}, {"compound": "O=C(C[C@@H]1CC[C@H]2[C@@H](COC[C@H](O)CN2C(=O)c2ccc3c(c2)OCO3)O1)NCCN1CCCC1", "relative growth": "inactive: 1"}, {"compound": "C[C@H](C(=O)O)N1CCCCC1", "relative growth": "inactive: 0.979"}, {"compound": "COc1ccc(NC(=O)Nc2ccc3c(c2)C(=O)N([C@H](C)CO)C[C@@H](C)[C@@H](CN(C)S(=O)(=O)c2ccc(F)cc2)OCCCC[C@@H](C)O3)cc1", "relative growth": "inactive: 1"}, {"compound": "C[C@H](CO)N1C[C@H](C)[C@@H](CN(C)Cc2ccc(-c3ccccc3)cc2)Oc2ccc(NC(=O)c3ccncc3)cc2CC1=O", "relative growth": "inactive: 0.993"}, {"compound": "COc1ccc(NC(=O)Nc2ccc3c(c2)C(=O)N([C@@H](C)CO)C[C@H](C)[C@H](CN(C)Cc2ccc(C(F)(F)F)cc2)OCCCC[C@@H](C)O3)cc1", "relative growth": "inactive: 0.996"}, {"compound": "CCCC[C@@H](CC)COc1ccc(-c2nc(-c3ccc(OC)cc3)nc(-c3ccc(OC[C@@H](CC)CCCC)cc3O)n2)c(O)c1", "relative growth": "inactive: 1.02"}, {"compound": "C[C@H](CO)N1C[C@H](C)[C@H](CN(C)S(=O)(=O)c2ccccc2)Oc2ccc(NS(C)(=O)=O)cc2C1=O", "relative growth": "inactive: 0.998"}, {"compound": "C[C@H](CO)N1C[C@H](C)[C@@H](CN(C)S(=O)(=O)c2cn(C)cn2)Oc2c(NC(=O)C3CC3)cccc2C1=O", "relative growth": "inactive: 1.01"}, {"compound": "O=C(C[C@H]1C[C@@H]2c3cc(NC(=O)Nc4ccc(C(F)(F)F)cc4)ccc3O[C@@H]2[C@H](CO)O1)NCc1ccc(Cl)cc1", "relative growth": "inactive: 1.04"}, {"compound": "C[C@@H]1CCCCO[C@H](CN(C)C(=O)Cc2ccccc2)[C@H](C)CN([C@@H](C)CO)C(=O)c2cc(NC(=O)CCC(F)(F)F)ccc2O1", "relative growth": "inactive: 0.99"}, {"compound": "CO[C@H]1CN(C)C(=O)c2ccc(NS(=O)(=O)CC(F)(F)F)cc2OC[C@H](C)N(C(=O)NC(C)C)C[C@@H]1C", "relative growth": "inactive: 0.979"}, {"compound": "C[C@@H]1CN([C@H](C)CO)C(=O)c2cc(NC(=O)Cn3cnnn3)ccc2O[C@@H]1CN(C)Cc1ccccc1", "relative growth": "inactive: 0.993"}, {"compound": "COc1ccc([Si](C)(C)[C@@H]2[C@@H](CC(=O)N3CCC[C@H]3CO)O[C@]3(C(=O)N(Cc4cccc(N5CCCCC5=O)c4)c4ccccc43)[C@H]2C)cc1", "relative growth": "inactive: 1.02"}, {"compound": "O=C(C[C@@H]1CC[C@@H]2[C@H](COC[C@H](O)CN2S(=O)(=O)c2ccccc2)O1)N[C@H]1CCN(Cc2ccccc2)C1", "relative growth": "inactive: 0.962"}, {"compound": "COc1ccc(S(=O)(=O)N(C)C[C@@H]2Oc3c(NS(=O)(=O)c4ccc(C)cc4)cccc3C(=O)N([C@H](C)CO)C[C@H]2C)cc1", "relative growth": "inactive: 0.996"}, {"compound": "C[C@H](CO)N1C[C@H](C)[C@@H](CN(C)CC2CCCCC2)OCCCC[C@H](C)Oc2ccc(NS(=O)(=O)c3ccccc3)cc2C1=O", "relative growth": "inactive: 0.982"}, {"compound": "Cc1noc(C)c1NC(=O)Nc1ccc2c(c1)C(=O)N([C@H](C)CO)C[C@H](C)[C@@H](CN(C)S(=O)(=O)c1cccs1)OCCCC[C@H](C)O2", "relative growth": "inactive: 0.985"}, {"compound": "C[C@@H]1CN([C@@H](C)CO)C(=O)c2cc(NC(=O)Nc3cccc4ccccc34)ccc2O[C@H]1CN(C)C(=O)Nc1ccccc1", "relative growth": "inactive: 0.994"}, {"compound": "C[C@@H]1CCCCO[C@H](CN(C)S(=O)(=O)c2ccc(F)cc2)[C@H](C)CN([C@@H](C)CO)C(=O)c2cc(NC(=O)c3ccccc3)ccc2O1", "relative growth": "inactive: 1.03"}, {"compound": "O=C(O)[C@@H]1CCCC[C@@H]1C(=O)N1CCc2ccccc2[C@H]1CN1C(=O)c2ccccc2C1=O.O=C(O)[C@H]1CCCC[C@@H]1C(=O)N1CCc2ccccc2[C@H]1CN1C(=O)c2ccccc2C1=O", "relative growth": "inactive: 1"}, {"compound": "C[C@H](CO)N1C[C@H](C)[C@@H](CN(C)C(=O)NC2CCCCC2)OCCCC[C@H](C)Oc2ccc(NC(=O)C3CCCCC3)cc2C1=O", "relative growth": "inactive: 0.994"}, {"compound": "O=C(C[C@@H]1CC[C@@H]2[C@H](COC[C@@H](O)CN2C(=O)Nc2cc(Cl)cc(Cl)c2)O1)N1CCOCC1", "relative growth": "inactive: 0.988"}]}]}
